# Measurements published in PubChem BioAssay AID588453 (National Center for Advancing Translational Sciences (NCATS), 2011).
# Screen size: about 390,000 compounds; about 4,000 (1%) were called active. This list was built around the results that the source calls inconclusive (neither active nor inactive); the mix of calls is not that of the screen. The call rests on the fitted dose curve; in most records, active means well fitted inhibition curve with a large enough effect; inconclusive means small, poorly fitted or top-dose-only effect; inactive means no such curve, though single readings can be large or run the other way. Potencies beside an inconclusive call are fits to weak or partial responses and may not hold up.
# Target: Thioredoxin reductase 1, cytoplasmic (Rattus norvegicus) (UniProt O89049)
# Test: qHTS Assay for Inhibitors of Mammalian Selenoprotein Thioredoxin Reductase 1 (TrxR1): qHTS; further: nearly all actives have a fitted effect of over 65% in size
# Conditions: recombinant rTrxR1, NADPH fluorescence consumption, selenite substrate; series mostly up to 114 µM
# How it was run: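 Rat TrxR1 (90 nM in the dispensed reagent) was pre-reduced with 400 uM NADPH for 5 min at room temperature, then incubated with compound for 15 min. After 400 uM selenite was added, NADPH fluorescence (Ex 340/Em 450 nm) was followed for 8 min.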
# On the % scale 0 is the no-effect control and ±100 the full control effect; potency means the concentration at half of the fitted maximal effect; tags describe the fitted curve by direction and shape.
# Chain of UniProt O89049 (O89049 whole entry, looked up): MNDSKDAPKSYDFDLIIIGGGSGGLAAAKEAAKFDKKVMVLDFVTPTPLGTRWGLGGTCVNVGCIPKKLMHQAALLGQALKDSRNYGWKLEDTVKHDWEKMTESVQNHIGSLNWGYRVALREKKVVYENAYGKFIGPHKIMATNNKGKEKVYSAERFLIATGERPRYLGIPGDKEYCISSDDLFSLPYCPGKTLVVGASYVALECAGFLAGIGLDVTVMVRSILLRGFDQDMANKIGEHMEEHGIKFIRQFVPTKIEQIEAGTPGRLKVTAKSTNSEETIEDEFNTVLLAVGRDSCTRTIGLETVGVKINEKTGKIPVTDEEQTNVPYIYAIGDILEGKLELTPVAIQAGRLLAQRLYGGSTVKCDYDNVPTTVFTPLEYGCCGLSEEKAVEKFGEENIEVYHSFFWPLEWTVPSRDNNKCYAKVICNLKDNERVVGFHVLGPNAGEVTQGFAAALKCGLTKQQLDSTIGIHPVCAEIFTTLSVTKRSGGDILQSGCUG
Compound,Potency,"activity change, negative = inhibition"
O=S1(=O)c2ccccc2C(CCO)N1Cc1ccccc1 (configuration not stated),"inconclusive: 7.08 µM [inhibitor, partial curve]",
COc1ccc(C(=O)/C=C/c2cc(C(=O)O)cc3c2OCOC3)c(O)c1,"inconclusive: 56.2 µM [inhibitor, single point]",
CC(=O)Oc1ccc(C(=O)[C@H]2[C@H]3C(=O)N(c4ccc(C)cc4C)C(=O)[C@H]3[C@@H]3C=CC=NN32)cc1,inactive,
Cc1cc(NC(=O)CCS(=O)(=O)c2cc(Br)cc3c2N(C(=O)C2CC2)CC3)ccc1Br,"inconclusive: 89.1 µM [inhibitor, single point]",
CON(c1nc(Cl)nc(N(C)C)n1)S(=O)(=O)c1ccc(C)cc1,inactive,
CCN(CC)c1nc(C#N)nc(N2CCOCC2)n1,inactive,
CC(C)NC(=O)N(C)C[C@H]1Oc2ccc(NC(=O)c3ccncc3)cc2C(=O)N([C@H](C)CO)C[C@@H]1C,"inconclusive: 28.2 µM [inhibitor, full curve]",
Cc1nc2nncn2c(NCc2ccc(Cl)cc2)c1C,inactive,
COC(=O)c1c(NC(=O)CN2CCN(Cc3ccc4c(c3)OCO4)CC2)sc(C)c1C,"inconclusive: 89.1 µM [inhibitor, single point]",
COc1ccc(CNC(=O)c2nc(SC(C)C)ncc2Cl)cc1,inactive,
CCn1nc(C)cc1C(=O)Sc1ccc(C)cc1,"inconclusive: 22.4 µM [inhibitor, partial curve, poor fit]",
O=C(OCC(=O)c1cccs1)c1ccc([N+](=O)[O-])o1,"inconclusive: 20 µM [inhibitor, partial curve, poor fit]",
COc1ccccc1/C=C/C1=NC(=C\C=C/c2ccccc2)/C(=O)O1,"inconclusive: 15.8 µM [inhibitor, full curve, poor fit]",
CCOc1cc(/C=C2\COc3ccccc3C2=O)cc(Br)c1OCC(=O)N(C)C,"inconclusive: 17.8 µM [inhibitor, full curve, poor fit]",
Cc1ccc(/C=N/n2c(-c3ccco3)n[nH]c2=S)cc1,"inconclusive: 8.91 µM [inhibitor, partial curve, poor fit]",
CC(C)=CCc1ccc(O)c(=O)cc1C(C)C,"inconclusive: 50.1 µM [inhibitor, partial curve]",
COc1ccc(C2CC(c3ccc([N+](=O)[O-])cc3)=NN2C(C)=O)cc1 (configuration not stated),"inconclusive: 44.7 µM [inhibitor, partial curve, poor fit]",
CCCCn1nnc(NC(=S)NC(=O)c2ccc(OCC)c([N+](=O)[O-])c2)n1,active: 79.4 µM,
O=C1C(=O)N(c2nccs2)C(c2ccccc2F)/C1=C(\O)c1ccc2c(c1)OCCO2 (configuration not stated),"inconclusive: 35.5 µM [inhibitor, partial curve]",
COc1ccc(C2Nc3ccccc3C(=O)N2c2ccc(F)cc2)cc1COc1ccc(NC(C)=O)cc1 (configuration not stated),inactive,
COc1ccc2c3c(c(=O)oc2c1OCC(=O)O)CCCC3,inactive,
CN(C)Cc1c(O)ccc2ccccc12,"inconclusive: 31.6 µM [inhibitor, partial curve]",
CC1=CC(c2ccc(Cl)cc2)n2nc(NS(=O)(=O)c3ccc(C)cc3)nc2N1 (configuration not stated),"inconclusive: 56.2 µM [inhibitor, partial curve]",

Compound,Potency,"activity change, negative = inhibition"
Cc1cccc(/C=C/c2cccs2)n1,inactive,
Cc1nn(C(=O)c2ccc(Cl)cc2)c(C)c1S(=O)(=O)N1CCOCC1,"inconclusive: 31.6 µM [inhibitor, single point]",
CNC(=S)N/N=C(\C)c1ccc(Cl)s1,"inconclusive: 44.7 µM [inhibitor, partial curve]",
COc1ccc(-c2nc(CS(=O)CC(=O)NCc3ccc(F)cc3)c(C)o2)cc1 (configuration not stated),"inconclusive: 28.2 µM [inhibitor, partial curve]",
Cc1sc2nc(C(C)C)nc(SCC(=O)NCc3ccco3)c2c1C,"inconclusive: 6.31 µM [inhibitor, full curve]",
COc1ccc(NC(=O)CC2C(=O)N(c3cccc(C)c3)C(=O)N2Cc2cccnc2)cc1 (configuration not stated),inactive,
COC(=O)N1CCN(/[N+]([O-])=N/Oc2ccc([N+](=O)[O-])cc2[N+](=O)[O-])CC1,"inconclusive: 11.2 µM [inhibitor, partial curve]",
Cc1ccc(C(c2cccc(Br)c2)c2c(C)[nH]c3ccccc23)s1 (configuration not stated),"inconclusive: 70.8 µM [inhibitor, partial curve]",
CCCCC(=O)Nc1nnc(S(=O)(=O)N(C)Cc2ccco2)s1,active: 44.7 µM,
CC(C)c1ccc(NC(=O)C(C)N(c2ccccc2)S(C)(=O)=O)cc1 (configuration not stated),inactive,
C=CCn1c(SCCN2C(=O)c3ccccc3C2=O)nc2scc(-c3ccc(F)cc3)c2c1=O,inactive,
CCS(=O)(=O)N1Cc2ccccc2CC1C(=O)N(C)Cc1ccc(OC)cc1OC (configuration not stated),"inconclusive: 89.1 µM [inhibitor, partial curve, poor fit]",
CCc1ccc(OCC(=O)NNC(=O)c2ccc(NC(=O)C3CC3)cc2)cc1,inactive,
Cc1cc(C)nc(N/N=C/c2ccc([N+](=O)[O-])o2)n1,"inconclusive: 56.2 µM [inhibitor, partial curve, poor fit]",
COc1cc(NS(=O)(=O)c2ccc(NC(=S)NC(=O)c3ccccc3)cc2)nc(OC)n1,"inconclusive: 56.2 µM [inhibitor, partial curve, poor fit]",
Cc1cccc2sc(N(CCCN(C)C)C(=O)c3ccc4ncsc4c3)nc12,inactive,
Cc1ccc(Cn2ccc(NC(=O)c3cc(-c4cccs4)on3)n2)cc1,"inconclusive: 20 µM [inhibitor, single point]",
CC(C)c1cc(C(=O)NCc2ccco2)no1,"inconclusive: 79.4 µM [inhibitor, partial curve]",
Cc1ccc(NC(=O)c2cc3c([nH]c2=O)CC(C)(C)CC3=O)cc1,,inactive: 37% [at 0.0914 µM]
COc1ccc(C(=O)NCc2nnc(SCC(=O)N3CCc4ccccc43)o2)cc1OC,"inconclusive: 70.8 µM [inhibitor, single point]",
Cn1c(CN2CCN(C(=O)c3ccco3)CC2)nc2cc([N+](=O)[O-])ccc21,"inconclusive: 56.2 µM [inhibitor, partial curve]",
O=C(CSc1ccc(-c2ccco2)nn1)Nc1ccc(F)cc1F,active: 25.1 µM,
COc1ccc(-c2c(C(=O)O)nc3ccccc3c2C(=O)O)cc1,inactive,

Compound,Potency,"activity change, negative = inhibition"
COc1ccc(NC(=O)CCCSc2nc(-c3ccco3)cc(C(F)(F)F)n2)cc1OC,inactive,
CCCCN(CC)CCCNC(=O)c1cc2c(=O)[nH]c3ccccc3c2n1C,"inconclusive: 22.4 µM [inhibitor, full curve]",
COc1cc(C(=S)N2CCOCC2)ccc1OS(=O)(=O)c1ccc(Cl)cc1,inactive,
O=S(=O)(c1ccccc1)c1nc(-c2ccco2)oc1NCc1ccccc1,"inconclusive: 25.1 µM [inhibitor, partial curve]",
C=CCN1C(=O)C(O)(CC(=O)c2ccc(Cl)cc2)c2ccccc21 (configuration not stated),active: 35.5 µM,
COc1nccnc1NS(=O)(=O)c1ccc(N/C=C2\CCCCC2=O)cc1,"inconclusive: 89.1 µM [inhibitor, single point]",
O=C(CSc1ccc(-c2ccco2)nn1)c1ccccc1,active: 28.2 µM,
COc1ccc(N(C(=O)c2ccncc2)S(=O)(=O)c2cccs2)cc1,"inconclusive: 50.1 µM [inhibitor, partial curve, poor fit]",
O=C(c1cnn(C(=O)c2ccccc2F)c1)c1ccccc1O,"inconclusive: 50.1 µM [inhibitor, partial curve]",
O=CN1CCCN(C(=O)CC2C(=O)NCCN2Cc2cccc(Oc3ccccc3)c2)CC1 (configuration not stated),"inconclusive: 50.1 µM [inhibitor, partial curve]",
CC(=O)c1ccc(NS(=O)(=O)c2cccc(S(=O)(=O)c3ccc(Cl)cc3)c2)cc1,inactive,
Cc1ccc(/C=C/C(=O)OCC(=O)Nc2cccc(S(=O)(=O)N(C)C)c2)o1,"inconclusive: 89.1 µM [inhibitor, single point]",
CCn1cc(C(=O)NCc2ccco2)c(=O)c2cc(S(=O)(=O)N3CCc4ccccc4C3)ccc21,"inconclusive: 56.2 µM [inhibitor, partial curve, poor fit]",
Cc1sc(NC(=O)/C=C/c2ccco2)c(C(=O)O)c1C,"inconclusive: 31.6 µM [inhibitor, full curve]",
Cc1ccc(S(=O)(=O)N(C)C)cc1NC(=S)NC(=O)C12CC3CC(CC(C3)C1)C2,"inconclusive: 39.8 µM [inhibitor, partial curve, poor fit]",
CN(CCc1ccccn1)C1CCCN(S(=O)(=O)c2ccccc2)C1 (configuration not stated),"inconclusive: 79.4 µM [inhibitor, single point]",
Cc1ccc(CNc2ccc3c(c2)OCO3)cc1,"inconclusive: 10 µM [inhibitor, full curve]",
CC1(C)CC(=O)C/C(=N\NC(=O)c2cccs2)C1,"inconclusive: 28.2 µM [inhibitor, full curve]",
O=C(O)CC1S/C(=N/N=C/c2ccc(-c3ccccc3[N+](=O)[O-])o2)NC1=O (configuration not stated),"inconclusive: 39.8 µM [inhibitor, partial curve]",
Cc1cccc(NC(=O)CSc2cc(C)c(C#N)c3nc4ccccc4n23)c1,"inconclusive: 56.2 µM [inhibitor, partial curve, poor fit]",
CS(=O)(=O)c1ccc(-c2sc3ccccc3c2C(=O)N2CCN(c3ccc(F)cc3)CC2)cc1,"inconclusive: 89.1 µM [inhibitor, single point]",
